# Assay results published in the supplement of paper PMC8728848.
# The list shows a part of the results.
# B1: Gal-9-hFc (Mus musculus), O08573-2 (protein)
# chain: MALFSAQSPYINPIIPFTGPIQGGLQEGLQVTLQGTTKSFAQRFVVNFQNSFNGNDIAFHFNPRFEEGGYVVCNTKQNGQWGPEERKMQMPFQKGMPFELCFLVQRSEFKVMVNKKFFVQYQHRVPYHLVDTIAVSGCLKLSFITFQTQNFRPAHQAPMAQTTIHMVHSTPGQMFSTPGIPPVVYPTPAYTIPFYTPIPNGLYPSKSIMISGNVLPDATRFHINLRCGGDIAFHLNPRFNENAVVRNTQINNSWGQEERSLLGRMPFSRGQSFSVWIICEGHCFKVAVNGQHMCEYYHRLKNLQDINTLEVAGDIQLTHVQT
# Legend:
# Experiment in all cases: glycan array binding signal (z-score within array); higher = stronger binding
# Conditions in all cases: glycan notation: IUPAC condensed, linker removed
# [1] = molecular target: Fuc(a1-2)[GalNAc(a1-3)]Gal(b1-3)GlcNAc(b1-3)GalNAc
# In short: (§1)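 From the Consortium for Functional Glycomics database, 3228 arrays were curated, keeping only those whose protein sequence was available. Binding is given as a within-array Z-score averaged across arrays sharing a protein sequence and across linkers. Negative Z-scores can be read as non-binding.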
# [2] = molecular target: Fuc(a1-2)[GalNAc(a1-3)]Gal(b1-3)GlcNAc(b1-6)GalNAc
# In short: as §1
# [3] = molecular target: Fuc(a1-2)[GalNAc(a1-3)]Gal(b1-4)Glc
# In short: as §1
# [4] = molecular target: Fuc(a1-2)[GalNAc(a1-3)]Gal(b1-4)GlcNAc
# In short: as §1
# [5] = molecular target: Fuc(a1-2)[GalNAc(a1-3)]Gal(b1-4)GlcNAc(b1-2)Man
# In short: as §1
# [6] = molecular target: Fuc(a1-2)[GalNAc(a1-3)]Gal(b1-4)GlcNAc(b1-2)Man(a1-3)[Fuc(a1-2)[GalNAc(a1-3)]Gal(b1-4)GlcNAc(b1-2)Man(a1-6)]Man(b1-4)GlcNAc(b1-4)GlcNAc
# In short: as §1
# [7] = molecular target: Fuc(a1-2)[GalNAc(a1-3)]Gal(b1-4)GlcNAc(b1-2)Man(a1-3)[Fuc(a1-2)[GalNAc(a1-3)]Gal(b1-4)GlcNAc(b1-2)Man(a1-6)]Man(b1-4)GlcNAc(b1-4)[Fuc(a1-6)]GlcNAc
# In short: as §1
# [8] = molecular target: Fuc(a1-2)[GalNAc(a1-3)]Gal(b1-4)GlcNAc(b1-3)Gal(b1-4)GlcNAc
# In short: as §1
# [9] = molecular target: Fuc(a1-2)[GalNAc(a1-3)]Gal(b1-4)GlcNAc(b1-3)Gal(b1-4)GlcNAc(b1-3)Gal(b1-4)GlcNAc
# In short: as §1
# [10] = molecular target: Fuc(a1-2)[GalNAc(a1-3)]Gal(b1-4)GlcNAc(b1-3)GalNAc
# In short: as §1
# [11] = molecular target: Fuc(a1-2)[GalNAc(a1-3)]Gal(b1-4)GlcNAc(b1-3)[Fuc(a1-2)[GalNAc(a1-3)]Gal(b1-4)GlcNAc(b1-6)]GalNAc
# In short: as §1
# [12] = molecular target: Fuc(a1-2)[GalNAc(a1-3)]Gal(b1-4)GlcNAc(b1-6)GalNAc
# In short: as §1
# [13] = molecular target: Fuc(a1-2)[GalNAc(a1-3)]Gal(b1-4)[Fuc(a1-3)]GlcNAc
# In short: as §1
# [14] = molecular target: Fuc(a1-2)[GalNAc(a1-3)]Gal(b1-4)[Fuc(a1-3)]GlcNAc(b1-3)GalNAc
# In short: as §1
# [15] = molecular target: Fuc(a1-2)[GalNAc(a1-4)]Gal(b1-4)GlcNAc
# In short: as §1
# [16] = molecular target: Fuc(a1-2)[GalNAc(b1-3)]Gal
# In short: as §1
# Fuc(a1-3)GlcNAc = molecular target: Fuc(a1-3)GlcNAc
# In short: as §1
# [17] = molecular target: Fuc(a1-3)[Gal(b1-4)]Glc6S
# In short: as §1
# [18] = molecular target: Fuc(a1-3)[Gal(b1-4)]GlcNAc
# In short: as §1
# [19] = molecular target: Fuc(a1-3)[Gal(b1-4)]GlcNAc(b1-2)Man
# In short: as §1
# [20] = molecular target: Fuc(a1-3)[Gal(b1-4)]GlcNAc(b1-2)Man(a1-3)[Fuc(a1-3)[Gal(b1-4)]GlcNAc(b1-2)Man(a1-6)]Man(b1-4)GlcNAc(b1-4)GlcNAc
# In short: as §1
# [21] = molecular target: Fuc(a1-3)[Gal(b1-4)]GlcNAc(b1-2)Man(a1-3)[Fuc(a1-3)[Gal(b1-4)]GlcNAc(b1-2)Man(a1-6)]Man(b1-4)GlcNAc(b1-4)[Fuc(a1-6)]GlcNAc
# In short: as §1
# [22] = molecular target: Fuc(a1-3)[Gal(b1-4)]GlcNAc(b1-3)Gal(b1-3)[Fuc(a1-4)]GlcNAc
# In short: as §1
# [23] = molecular target: Fuc(a1-3)[Gal(b1-4)]GlcNAc(b1-3)Gal(b1-4)[Fuc(a1-3)]GlcNAc
# In short: as §1
# [24] = molecular target: Fuc(a1-3)[Gal(b1-4)]GlcNAc(b1-3)Gal(b1-4)[Fuc(a1-3)]GlcNAc(b1-3)Gal(b1-4)[Fuc(a1-3)]GlcNAc
# In short: as §1
# [25] = molecular target: Fuc(a1-3)[Gal(b1-4)]GlcNAc(b1-3)GalNAc
# In short: as §1
# [26] = molecular target: Fuc(a1-3)[Gal(b1-4)]GlcNAc(b1-6)GalNAc
# In short: as §1
# [27] = molecular target: Fuc(a1-3)[Gal(b1-4)]GlcNAc(b1-6)[Gal(b1-3)GlcNAc(b1-3)]Gal(b1-4)Glc
# In short: as §1
# [28] = molecular target: Fuc(a1-3)[Gal(b1-4)]GlcNAc6S
# In short: as §1
# [29] = molecular target: Fuc(a1-3)[Gal3S(b1-4)]Glc
# In short: as §1
# [30] = molecular target: Fuc(a1-3)[Gal3S(b1-4)]GlcNAc
# In short: as §1
# [31] = molecular target: Fuc(a1-3)[Gal3S(b1-4)]GlcNAc6S
# In short: as §1
# [32] = molecular target: Fuc(a1-3)[GalNAc(b1-4)]GlcNAc
# In short: as §1
# [33] = molecular target: Fuc(a1-3)[GalNAc(b1-4)]GlcNAc6S
# In short: as §1
# Fuc(a1-4)GlcNAc = molecular target: Fuc(a1-4)GlcNAc
# In short: as §1
# Fuc(b1-3)GlcNAc = molecular target: Fuc(b1-3)GlcNAc
# In short: as §1
# Gal(a1-2)Gal = molecular target: Gal(a1-2)Gal
# In short: as §1
binder,measurement,setting,value
B1,glycan array binding signal (z-score),[1],-0.072
same,glycan array binding signal (z-score),[2],-0.451
same,glycan array binding signal (z-score),[3],-0.255
same,glycan array binding signal (z-score),[4],-0.485
same,glycan array binding signal (z-score),[5],-0.361
same,glycan array binding signal (z-score),[6],-0.04
same,glycan array binding signal (z-score),[7],-0.135
same,glycan array binding signal (z-score),[8],0.055
same,glycan array binding signal (z-score),[9],0.143
same,glycan array binding signal (z-score),[10],-0.192
same,glycan array binding signal (z-score),[11],-0.223
same,glycan array binding signal (z-score),[12],-0.56
same,glycan array binding signal (z-score),[13],-0.286
same,glycan array binding signal (z-score),[14],0.106
same,glycan array binding signal (z-score),[15],-0.383
same,glycan array binding signal (z-score),[16],-0.459
same,glycan array binding signal (z-score),Fuc(a1-3)GlcNAc,-0.365
same,glycan array binding signal (z-score),[17],1.33
same,glycan array binding signal (z-score),[18],-0.277
same,glycan array binding signal (z-score),[19],-0.268
same,glycan array binding signal (z-score),[20],-0.103
same,glycan array binding signal (z-score),[21],0.147
same,glycan array binding signal (z-score),[22],-0.075
same,glycan array binding signal (z-score),[23],-0.201
same,glycan array binding signal (z-score),[24],-0.312
same,glycan array binding signal (z-score),[25],-0.479
same,glycan array binding signal (z-score),[26],0.042
same,glycan array binding signal (z-score),[27],-0.556
same,glycan array binding signal (z-score),[28],-0.756
same,glycan array binding signal (z-score),[29],-0.196
same,glycan array binding signal (z-score),[30],-0.315
same,glycan array binding signal (z-score),[31],-0.183
same,glycan array binding signal (z-score),[32],-0.241
same,glycan array binding signal (z-score),[33],-0.29
same,glycan array binding signal (z-score),Fuc(a1-4)GlcNAc,1.03
same,glycan array binding signal (z-score),Fuc(b1-3)GlcNAc,0.19
same,glycan array binding signal (z-score),Gal(a1-2)Gal,-0.049
